From publication PMC11995724, “Antibiotic target discovery by integrated phenotypic and activity-based profiling of electrophilic fragments” (Cell chemical biology, 2025)
In all, about 3,200 compounds went through this assay and about 75 (2%) showed an effect of 50% or more. Some of the results follow.

system: T1, S. aureus MSSA476; parameters: species or system S. aureus MSSA476 (TSB) or V. cholerae SAD30 (LB); 384-well bacterial growth screen at 25 uM, OD600 relative to DMSO control; details: relative growth, OD600, TSB; 25 µM; inhibitor
T1 construct: MSSA476

| SMILES | % of control remaining [%] |
| --- | --- |
| CC(Cl)C(=O)NCc1cc(-c2ccccc2)on1 (stereo not shown) [7-A13, 2-chloro-N-[(5-phenyl-1,2-oxazol-3-yl)methyl]propanamide] | 75.0392 |
| O=C(CCl)N(Cc1ccc(F)cc1)C12CC3CC(CC(C3)C1)C2 [4-B11, N-(adamantan-1-yl)-2-chloro-N-[(4-fluorophenyl)methyl]acetamide] | 110.91 |
| CC(C)NC(=O)C(C#N)=Cc1ccccc1Cl [9-A09, 3-(2-chlorophenyl)-2-cyano-N-(propan-2-yl)prop-2-enamide] | 86.5918 |
| O=C(CCl)NCCCN1CCCCCC1=O [5-J10, 2-chloro-N-[3-(2-oxoazepan-1-yl)propyl]acetamide] | 112.204 |
| COC1(CNC(=O)CCl)CCC(C(F)F)CC1 (stereo not shown) [6-D21, 2-chloro-N-{[4-(difluoromethyl)-1-methoxycyclohexyl]methyl}acetamide] | 96.6341 |
| CC(Cl)C(=O)NC1CCc2cc(C#N)ccc21 (stereo not shown) [5-N17, 2-chloro-N-(5-cyano-2,3-dihydro-1H-inden-1-yl)propanamide] | 93.9891 |
| CC(=O)Nc1ccc(C=C(C#N)C(=O)NCc2ccccc2)cc1 [8-D12, N-benzyl-2-cyano-3-(4-acetamidophenyl)prop-2-enamide] | 109.212 |
| O=C(CCl)c1ccc(O)cc1O [10-C14, 2-chloro-1-(2,4-dihydroxyphenyl)ethan-1-one] | 119.687 |
| CC(Cl)C(=O)Nc1cccc(C(F)(F)F)c1 (stereo not shown) [5-P14, 2-chloro-N-[3-(trifluoromethyl)phenyl]propanamide] | 118.033 |
| C=CC(=O)NC1CC(CC(F)(F)F)C1 (stereo not shown) [2-F09, N-[3-(2,2,2-trifluoroethyl)cyclobutyl]prop-2-enamide] | 107.92 |
| Cc1cc(Cl)ccc1OC(C)C(=O)N1CCSSCC1 (stereo not shown) [10-J21, 2-(4-chloro-2-methylphenoxy)-1-(1,2,5-dithiazepan-5-yl)propan-1-one] | 122.188 |
| CC(Cl)C(=O)NCC1CCCCN1C(=O)C(F)(F)F (stereo not shown) [7-K13, 2-chloro-N-{[1-(2,2,2-trifluoroacetyl)piperidin-2-yl]methyl}propanamide] | 106.75 |
| CC(Cl)C(=O)N1CCC(Cc2ccncc2)C1 (stereo not shown) [6-N11, 2-chloro-1-{3-[(pyridin-4-yl)methyl]pyrrolidin-1-yl}propan-1-one] | 86.0488 |
| CCCCNC(=O)C(C#N)=Cc1ccc2c(c1)OCCO2 [9-G11, N-butyl-2-cyano-3-(2,3-dihydro-1,4-benzodioxin-6-yl)prop-2-enamide] | 84.1948 |
| C=CC(=O)N1CCC(OC2CCCC2)CC1 [1-L07, 1-[4-(cyclopentyloxy)piperidin-1-yl]prop-2-en-1-one] | 116.747 |
| COc1c(Cl)cc(Cl)cc1C=C(C#N)C(N)=O [9-M13, 2-cyano-3-(3,5-dichloro-2-methoxyphenyl)prop-2-enamide] | 110.861 |
| C=CC(=O)NC(c1noc(O)n1)C(C)(C)C (stereo not shown) [2-C14, N-[1-(5-hydroxy-1,2,4-oxadiazol-3-yl)-2,2-dimethylpropyl]prop-2-enamide] | 138.555 |
| C=CC(=O)NCCNC(=O)c1cc2ccccc2[nH]1 [3-B21, N-{2-[(1H-indol-2-yl)formamido]ethyl}prop-2-enamide] | 126.774 |
| CC(Cl)C(=O)C=C1N(C)c2ccccc2C1(C)C (stereo not shown) [10-J22, 3-chloro-1-(1,3,3-trimethyl-2,3-dihydro-1H-indol-2-ylidene)butan-2-one] | 134.063 |
| CC(Cl)C(=O)N1C2CCC1CC(N(C)C(=O)c1ccccc1)C2 (stereo not shown) [6-L14, N-[8-(2-chloropropanoyl)-8-azabicyclo[3.2.1]octan-3-yl]-N-methylbenzamide] | 93.9024 |
| CSc1ccccc1NC(=O)CN(C)C(=O)CCl [4-L03, 2-chloro-N-methyl-N-({[2-(methylsulfanyl)phenyl]carbamoyl}methyl)acetamide] | 83.0872 |
| N#CC(=Cc1ccc(Cl)cc1)C(=O)NCc1ccccc1 [9-G13, N-benzyl-3-(4-chlorophenyl)-2-cyanoprop-2-enamide] | 65.0187 |
| Cc1cc(C(=O)CCl)c(C)n1-c1ccc(C(C)(C)C)cc1 [10-N20, 1-[1-(4-tert-butylphenyl)-2,5-dimethyl-1H-pyrrol-3-yl]-2-chloroethan-1-one] | 101.875 |

| SMILES | % of control remaining [%] |
| --- | --- |
| CC(Cl)C(=O)N1CCCC(n2ccc(C(F)(F)F)n2)C1 (stereo not shown) [7-A08, 2-chloro-1-{3-[3-(trifluoromethyl)-1H-pyrazol-1-yl]piperidin-1-yl}propan-1-one] | 84.4584 |
| O=C(CCl)Cc1ccc(F)cc1 [10-G15, 1-chloro-3-(4-fluorophenyl)propan-2-one] | 117.5 |
| CC(Cl)C(=O)Nc1ccccc1Sc1ccccc1 (stereo not shown) [6-H10, 2-chloro-N-[2-(phenylsulfanyl)phenyl]propanamide] | 131.122 |
| O=C(CCl)N1CCN(C(=O)c2cn(C3CC3)nn2)CC1 [5-D03, 2-chloro-1-[4-(1-cyclopropyl-1H-1,2,3-triazole-4-carbonyl)piperazin-1-yl]ethan-1-one] | 73.224 |
| COc1ccc(NC(=O)C(C#N)=Cc2ccco2)cc1 [9-F19, 2-cyano-3-(furan-2-yl)-N-(4-methoxyphenyl)prop-2-enamide] | 86.2921 |
| CC(Cl)C(=O)N1CCC(c2cc3ccccc3[nH]2)C1 (stereo not shown) [7-O12, 2-chloro-1-[3-(1H-indol-2-yl)pyrrolidin-1-yl]propan-1-one] | 84.7724 |
| O=C(CCl)NC(c1ccc(F)c(C(F)(F)F)c1)C1CC1 (stereo not shown) [7-B22, 2-chloro-N-{cyclopropyl[4-fluoro-3-(trifluoromethyl)phenyl]methyl}acetamide] | 76.2951 |
| C=CCNC(=O)C(C#N)=Cc1ccc(OC)c(O)c1 [8-E21, 2-cyano-3-(3-hydroxy-4-methoxyphenyl)-N-(prop-2-en-1-yl)prop-2-enamide] | 100.913 |
| N#Cc1c(NC(=O)CCl)oc(-c2cccs2)c1-c1cccs1 [6-I09, 2-chloro-N-[3-cyano-4,5-bis(thiophen-2-yl)furan-2-yl]acetamide] | 37.9024 |
| CCC(NC(=O)CCl)c1c(C)noc1C (stereo not shown) [7-D03, 2-chloro-N-[1-(3,5-dimethyl-1,2-oxazol-4-yl)propyl]acetamide] | 95.4474 |
| C=CC(=O)NC1CCN(c2ccc(Cl)c(Cl)c2)C1 (stereo not shown) [1-C14, N-[1-(3,4-dichlorophenyl)pyrrolidin-3-yl]prop-2-enamide] | 102.681 |
| CN(Cc1ccc(-c2ccc(Cl)cc2)o1)C(=O)CCl [5-I13, 2-chloro-N-{[5-(4-chlorophenyl)furan-2-yl]methyl}-N-methylacetamide] | 146.812 |
| N#CC(=Cc1ccc(-c2ccccc2F)o1)C(=O)Nc1nccs1 [9-A08, 2-cyano-3-[5-(2-fluorophenyl)furan-2-yl]-N-(1,3-thiazol-2-yl)prop-2-enamide] | 79.7004 |
| O=C(CCl)Nc1nc2c(s1)CCCC2 [5-G15, 2-chloro-N-(4,5,6,7-tetrahydro-1,3-benzothiazol-2-yl)acetamide] | 107.468 |
| N#CC(=Cc1ccc2[nH]c(=O)[nH]c2c1)C(=O)NC1CCCC1 [9-E03, 2-cyano-N-cyclopentyl-3-(2-oxo-2,3-dihydro-1H-1,3-benzodiazol-5-yl)prop-2-enamide] | 93.1835 |
| C=CC(=O)NCc1cccc(-n2cccn2)n1 [1-M14, N-{[6-(1H-pyrazol-1-yl)pyridin-2-yl]methyl}prop-2-enamide] | 103.385 |
| N#CC(=Cc1ccc(O)c([N+](=O)[O-])c1)C(=O)NCc1ccccc1 [8-O05, N-benzyl-2-cyano-3-(4-hydroxy-3-nitrophenyl)prop-2-enamide] | 115.187 |
| C=CC(=O)Nc1cccc(C(=O)C(C)(C)C)c1 [2-I18, N-[3-(2,2-dimethylpropanoyl)phenyl]prop-2-enamide] | 104.439 |
| Cc1ccsc1CN(C(=O)CCl)C(C)C [7-P03, 2-chloro-N-[(3-methylthiophen-2-yl)methyl]-N-(propan-2-yl)acetamide] | 121.821 |
| C=CC(=O)N1CC[C@H](Oc2ccc(F)cc2)C1 [2-A15, 1-[(3S)-3-(4-fluorophenoxy)pyrrolidin-1-yl]prop-2-en-1-one] | 159.443 |
| COc1ccc(C=C(C#N)C(=O)Nc2ccccc2C(=O)O)cc1O [9-A18, 2-[2-cyano-3-(3-hydroxy-4-methoxyphenyl)prop-2-enamido]benzoic acid] | 91.0861 |
| C=CC(=O)NCc1ccnc(N2CCSCC2)c1 [1-I14, N-{[2-(thiomorpholin-4-yl)pyridin-4-yl]methyl}prop-2-enamide] | 123.077 |
| C=CC(=O)NC(C)(Cn1cccn1)C(N)=O (stereo not shown) [1-A20, N-{1-carbamoyl-1-[(1H-pyrazol-1-yl)methyl]ethyl}prop-2-enamide] | 125.187 |
